Experimental data published in the antibiotic and cytotoxicity screens of Wong et al. (2023).
This is one part of the list.

Key:
[1] = system: HSkMC (human skeletal muscle cells); experiment: cytotoxicity call (relative viability < 0.9); conditions: 10 µM
[2] = system: HepG2; experiment: cytotoxicity call (relative viability < 0.9); conditions: 10 µM
[3] = system: S. aureus RN4220; experiment: growth inhibition call (relative growth <= 0.2); conditions: 50 µM

| Compound | cytotoxicity call [1] | cytotoxicity call [2] | growth inhibition call [3] |
| --- | --- | --- | --- |
| CN1CCN(C(=O)C[C@@H]2C=C[C@@H](NS(=O)(=O)c3cccc(F)c3)[C@@H](CO)O2)CC1 | inactive | inactive | inactive |
| COCCCNC(=O)[C@@]1(Sc2ccc(C)cc2)CC(=O)N(C2Cc3ccccc3C2)[C@@H]1c1ccc(CO)cc1I | inactive | inactive | inactive |
| C[C@H]1CN([C@@H](C)CO)C(=O)c2cccc(NC(=O)Nc3ccc4c(c3)OCO4)c2O[C@H]1CN(C)Cc1ccc(Oc2ccccc2)cc1 | inactive | active | inactive |
| COc1ccccc1S(=O)(=O)N[C@H]1CC[C@@H](CCNC(=O)C2CC2)O[C@@H]1CO | inactive | inactive | inactive |
| CC(C)NC(=O)Nc1ccc2c(c1)C(=O)N([C@H](C)CO)C[C@@H](C)[C@H](CN(C)C(=O)C1CCCCC1)OCCCC[C@H](C)O2 | inactive | inactive | inactive |
| COc1ccc(S(=O)(=O)N(C)C[C@H]2Oc3ccc(NC(=O)CCN4CCOCC4)cc3CC(=O)N([C@@H](C)CO)C[C@H]2C)cc1 | inactive | inactive | inactive |
| COc1ccc2nc(Cl)sc2c1 | inactive | inactive | inactive |
| Cc1noc(C)c1S(=O)(=O)N(C)C[C@H]1Oc2ccc(NS(=O)(=O)c3ccccc3)cc2CC(=O)N([C@@H](C)CO)C[C@@H]1C | inactive | inactive | inactive |
| C[C@@H]1CN([C@H](C)CO)S(=O)(=O)c2ccc(C#C[C@@H](C)O)cc2O[C@H]1CN(C)C(=O)Nc1ccccc1 | inactive | inactive | inactive |
| COc1ccc(S(=O)(=O)N(C)C[C@@H]2Oc3c(NS(=O)(=O)c4ccc(C)cc4)cccc3C(=O)N([C@H](C)CO)C[C@H]2C)cc1 | inactive | inactive | inactive |
| C[C@@H]1CN([C@H](C)CO)C(=O)CCCn2nncc2CO[C@H]1CN(C)Cc1ccc2c(c1)OCCN2C | inactive | inactive | inactive |
